Laboratory results published in the BET-seq Pho4 binding data (Le et al. 2018).
This is one part of the list. The energies were worked out here from pooled read counts, against the library average; single values are noisy.

The sequences below were run against T1, Pho4 (S. cerevisiae) (UniProt P07270) (assay: relative binding free energy (BET-seq); higher = weaker binding). Settings: reference: library average.
T1 sequence: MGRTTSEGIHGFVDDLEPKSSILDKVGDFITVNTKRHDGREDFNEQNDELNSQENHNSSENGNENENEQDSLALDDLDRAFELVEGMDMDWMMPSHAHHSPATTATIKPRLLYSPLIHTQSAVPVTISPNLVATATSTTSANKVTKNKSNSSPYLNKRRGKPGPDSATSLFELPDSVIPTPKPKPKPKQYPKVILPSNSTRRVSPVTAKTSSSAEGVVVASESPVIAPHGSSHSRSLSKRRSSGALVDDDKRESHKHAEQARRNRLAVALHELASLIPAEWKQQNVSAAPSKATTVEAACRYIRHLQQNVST

Sequence | relative binding free energy [kcal/mol]
GGGAGCACGTGGTAAA | -0.04
TAAGACACGTGGGCTT | -0.15
ATTTTCACGTGAGGCT | 0.4
ATGATCACGTGCTGGT | 0.08
GGGATCACGTGTGAGC | 0.39
TTGATCACGTGCGTCG | 0.09
TAAGTCACGTGGTGTA | 0.06
GGTGTCACGTGGGCTA | 0.02
AGGGGCACGTGGTTTT | -0.12
GTGGTCACGTGGCAAT | 0.18
GTATACACGTGTTTGA | -0.04
TGTTCCACGTGTGCTG | 0.05
CGTCTCACGTGTGTTA | 0.2
GTCTGCACGTGGGGAG | -0.02
AGGGACACGTGGTAGG | -0.08
CGGGGCACGTGACAGG | -0.05
GGGTACACGTGGGTCG | -0.03
CGATACACGTGAGGGT | 0.26
TTCTTCACGTGTTGTT | 0.14
CTCGTCACGTGTTTGG | 0.12
TAGGGCACGTGGAGGA | -0.16
TGAGCCACGTGGAGGG | -0.04
TTTGACACGTGTCAAT | 0.19
GTCTTCACGTGTTCAT | 0.41
GTGCACACGTGAGGGT | 0.17

Sequence | relative binding free energy [kcal/mol]
TAAGGCACGTGCGATG | 0.01
TTTGACACGTGTTTCT | -0.03
ATAGGCACGTGTGAGC | -0.11
CATTACACGTGGTGCT | 0.08
GTCGTCACGTGGGGCA | 0.03
TAATTCACGTGGAAGT | 0.3
TTGTGCACGTGCGAAG | -0.16
TGTGACACGTGTCGTT | -0.02
GGATGCACGTGTTGAT | 0.22
GGGCGCACGTGAGGGA | 0.12
TTCTGCACGTGCGTGG | -0.1
TATTGCACGTGGTACG | -0.14
TGGTCCACGTGTAAAG | 0.14
TATGGCACGTGTGAGT | 0.01
GCTCTCACGTGGGGGT | -0.03
CGGAGCACGTGGTTGG | -0.2
TGTATCACGTGCGAGT | 0.14
ATTGTCACGTGAACTG | 0.37
TTGTCCACGTGCGGTT | -0.06
GCTGGCACGTGTTGGG | 0
TTCAGCACGTGCTGGA | -0.05
ATTGGCACGTGGGGGA | -0.24
AGTTTCACGTGAAGCG | 0.29
GAAGCCACGTGGTGTT | -0.12
AAGTGCACGTGGGCGT | -0.21

Sequence | relative binding free energy [kcal/mol]
GTGGACACGTGGTGTC | 0.09
ATACACACGTGAGGGG | 0.28
TGAGGCACGTGTGTAT | -0.06
AAGGGCACGTGTTAGG | -0.09
GTTCTCACGTGAGGCA | 0.53
GGTGACACGTGTTGTT | 0.12
TAGTTCACGTGGACGG | 0.28
TGTGACACGTGAAGGG | 0.26
TAGGGCACGTGGTCAT | -0.31
ATTGGCACGTGAAGAT | -0.05
GTGATCACGTGTAGGA | 0.07
GTTTTCACGTGCGAAT | 0.37
TGGCTCACGTGGTGAT | 0.25
GCGGACACGTGTGGGC | 0.1
GTTTCCACGTGTGGCG | 0.29
GTACGCACGTGATTTA | 0.13
ATGTACACGTGTTGTT | 0
CATTGCACGTGAGGGG | 0.17
AGGATCACGTGTAAAT | 0.26
GGCGTCACGTGTTATA | 0.15
GGCTGCACGTGGAAAG | 0.26
GACATCACGTGGTGGG | 0.27
GAATTCACGTGGAGTA | 0.33
CGGGGCACGTGGAATG | -0.14
GAGCTCACGTGTAGGG | 0.18

Sequence | relative binding free energy [kcal/mol]
TCGGTCACGTGACGTG | 0.13
AAATGCACGTGGCAGG | -0.07
TATAGCACGTGTGTCG | -0.14
ATTTGCACGTGATGAT | 0.13
TTTAGCACGTGACGAG | 0.18
TTTAACACGTGGTCGG | 0
TTCGACACGTGTGGGA | 0.07
TTAAACACGTGGTGTG | -0.08
AGGGTCACGTGGCACG | 0.08
TGTTACACGTGTTGTT | 0.06
CGGGGCACGTGGGTTA | -0.15
GTAAGCACGTGTAGAG | -0.09
GCAGTCACGTGTTGTG | 0.16
CGTTACACGTGTTTAG | 0.07
ATTTACACGTGTCTTT | -0.01
GGGATCACGTGGTGCG | 0.25
AGTGGCACGTGTTCGT | -0.1
TACATCACGTGTTAGG | 0.24
GAGAGCACGTGTGAGT | -0.1
TACCTCACGTGATGGG | 0.52
TTATGCACGTGAGATA | 0.15
GTCGTCACGTGTGGGA | 0.2
ACTAGCACGTGTGGTG | -0.18
GTAGCCACGTGGGTGG | -0.19
GAGTCCACGTGGTTAT | 0.28

Sequence | relative binding free energy [kcal/mol]
TTTGTCACGTGTAATT | 0.13
AAAGACACGTGGGTAG | -0.07
CTGGTCACGTGAATTT | 0.2
AGCATCACGTGTTCGT | 0.26
TTCAGCACGTGAGATT | 0.38
AGGTTCACGTGATTAG | 0.35
TCGGGCACGTGTGATA | -0.06
GGCCACACGTGTGGGG | 0.1
TCGATCACGTGGGGGC | 0.05
GGATGCACGTGGAATG | 0.14
GGTGCCACGTGGGCTT | -0.06
GCAATCACGTGGTGGT | 0.08
TTTGTCACGTGGGGTA | -0.1
TGGTTCACGTGTACTT | 0.27
GGGGTCACGTGATAGA | 0.39
AGTTCCACGTGGTTAT | -0.03
TGTATCACGTGAGGCA | 0.24
TCGATCACGTGATTGT | 0.45
CTCTGCACGTGGTTGT | -0.15
TGGAACACGTGAGTGA | 0.35
TTAGGCACGTGGGCAT | -0.28
CTCGGCACGTGGGGTC | -0.17
TAGGTCACGTGGATTT | 0.17
TAGGGCACGTGATGAG | -0.1
TCATACACGTGTTGGG | 0.1

Sequence | relative binding free energy [kcal/mol]
TGAATCACGTGATGCG | 0.23
ATTAACACGTGTAGCG | 0.02
CGGGGCACGTGATTAT | 0.07
TTGTTCACGTGTCGGC | 0.36
TGAATCACGTGCGATG | 0.37
TTGTGCACGTGGAAGC | 0.12
AGGCACACGTGGGGAT | -0.07
GGCGTCACGTGGCCGG | -0.08
GGTAGCACGTGTTGTT | 0
TTCGGCACGTGTTGAG | 0
ATGAGCACGTGGAATT | 0.18
ATTTGCACGTGAGAAT | 0.24
CGAATCACGTGGTGTT | 0.06
TGGAGCACGTGTGTAT | 0.1
CGGCGCACGTGTGAAT | 0.14
TCATTCACGTGTGAAG | 0.3
AGATTCACGTGGATTT | 0.35
GGTTACACGTGGAGAT | 0.28
ATGGACACGTGTGTGC | 0.02
AGCGGCACGTGTGTGG | -0.09
TTGGGCACGTGCGAAG | -0.11
